# Assay results: PubChem BioAssay AID686971 (National Center for Advancing Translational Sciences (NCATS), 2013)
# Screen size: about 360,000 compounds; about 7,500 (2.1%) were called active. The shares of active, inactive and inconclusive entries below differ from those in the screen. Calls follow the shape of the dose curve; as a rule, active = well fitted cell-killing curve with a large enough effect; inconclusive = small, poorly fitted or top-dose-only effect, or effect the other way, or another doubt; inactive = no such curve, though single readings can be large or run the other way. No potency is given beside an inconclusive call; the fits are too rough.
# Experiment: qHTS for induction of synthetic lethality in tumor cells producing 2HG: qHTS for the HT-1080-IDH1KD cell line
# Conditions: HT-1080 IDH1 knockdown viability, ATP luminescence, 48 h; activity, negative = toxicity: at 46.1 µM (top of the series) unless noted
# Excerpt: Unbiased genomic sequencing for 22 glioma genomes found recurrent mutation of IDH1 on chromosome 2q33, a gene encoding the cytosolic isoform of IIDH1 associated with the tri-carboxylic acid cycle (TCA) that catalyzes the oxidative decarboxylation of isocitrate, yielding alpha-ketoglutarate and CO2 via NADP+ to NADPH conversion. Subsequent studies confirmed the recurrent IDH mutations in up to 70% of secondary gliomas and in 10% of AML cases. In addition, the somatic mutation of cancer-associated IDH1 is a point mutation resulting in various amino-acid substituents at Arginine132 (IDH1 R132), a key residue found in the enzyme's active site that when mutated, results in the loss-of-function in metabolizing isocitrate but confers a gain-of-function to produce the oncometabolite 2-hydroxyglutarate (2HG). This in effect defines IDH1 as an oncogene and provides an extraordinary opportunity to discover chemical probes against mutant IDH1 that may translate into much needed new therapies for glioma and AML patients.
# This assay aims to perform a synthetic-lethal screen for chemical probes specific for 2HG-producing tumor cells using matched paired cell lines (1) HT-1080-NT fibrosarcoma cell line that overproduces 2HG and (2) HT-1080-IDH1KD cell line which has IDH1 expression knocked-down. Desirable compounds are toxic to the NT fibrosarcoma cell line but not to the IDH1KD cell line. The data in this AID corresponds to the results of the qHTS against the HT-1080 IDH1KD cell line.
# [1] Dang L, Jin S, Su SM. IDH mutations in glioma and acute myeloid leukemia. Trends of Mol Med. 2010; 16(9): 387-97.
# [2] Dang L et al. Cancer-associated IDH1 mutations produce 2-hydroxyglutarate. Nature. 2010; 465(7300):966.
# Molecular Libraries Probe Production Centers Network [MLPCN]
# NIH Chemical Genomics Center [NCGC]
# Assay Submitter (PI): Lenny Dang Ph.D., Agios Pharmaceuticals
# Suspensions of trypsinized HT-1080-IDH1KD cells were dispensed into white, tissue culture-treated, solid 1536-well plates at 5uL/well (750 cells/well final concentration) in RPMI medium supplemented with 5% FBS. Plates were incubated at 37 degrees C for 2 hours, after which 23 nL of compounds or DMSO were delivered to each well using a pin tool. Plates were then incubated at 37 degrees C for an additional 48 hours. CellTiter-Glo viability reagent (Promega) was dispensed into wells (2.5uL/well) and incubated at room temperature for 10 minutes. The plates were measured on a PerkinElmer ViewLux plate reader for luminescent signal (clear filter, 1 sec exp.). DMSO-treated control wells and media-only (no cells) control wells were used to normalize %Activity of identified toxic compounds; DMSO-treated wells corresponded to 0%Activity (100% viability), while media-only controls were used to normalize 100%Activity (0% viability). To minimize variability between cell lines, both HT-1080-NT and HT-1080-IDH1KD lines were dispensed and treated with identical compound series in single batches.
# Concentration-response curves were fitted to the signals arising from the resulting luminescence. The concentration-effect curves were then classified based on curve quality (r2), response magnitude and degree of measured activity, and compounds were subsequently categorized based on their curve class.
# Potency is read from the fitted curve at half-maximal effect; tags tell the direction and shape of the fitted curve.
Compound,Potency,"activity, negative = toxicity"
Oc1ccc(/C=N/NP(=S)(c2ccccc2)c2ccccc2)cc1O,"inconclusive [cytotoxic, single point]",–
COc1ccccc1CCNC1CCC(C(C)(C)C)CC1 (stereo not given),"inconclusive [cytotoxic, partial curve]",–
COc1cc(C(=O)N/N=C/c2ccc(OC(=O)N3CCOCC3)cc2)cc(OC)c1OC,active: 23.1 µM,–
COc1ccc(-c2noc(=O)n2Cc2cc(C)ccc2C)cc1,"inconclusive [cytotoxic, single point]",–
CC1CCC(C(C)C)C(OC(=O)Cn2c(COc3ccccc3)[n+](C)c3ccccc32)C1 (stereo not given),active: 11.6 µM,–
Oc1c(Cl)cccc1Cc1cc(Cl)cc(Cl)c1O,"inconclusive [cytotoxic, partial curve, poor fit]",–
CCN1/C(=C\C=C\C2=[N+](CC)c3ccccc3C2(C)C)C(C)(C)c2ccccc21,active: 2.59 µM,–
CCOC(=O)c1cccc(C2=C(CNC(C)=O)[C@H]3CC[C@@H](C2)N3Cc2ccccc2)c1,inactive,–
O=c1c2ccccc2nc(C[n+]2ccccc2)n1-c1cccc(C(F)(F)F)c1,inactive,–
COc1ccc(OCC#CCN2CCNCC2)cc1,inactive,–
O=C1NC(=O)C(CCc2ccncc2)(CCc2ccncc2)C(=O)N1CCc1ccccc1,inactive,–
c1ccc(-c2nn(-c3ccccc3)[n+](-c3ccccc3)n2)cc1,"inconclusive [cytotoxic, partial curve]",–
COC(=O)c1ccc(N=C(c2ccccc2)c2c(O)n(C)c(=O)n(C)c2=O)cc1,"inconclusive [cytotoxic, partial curve]",–
CC1OC(OC2C(O)CC(OC3C(O)CC(OC4CCC5(C)C(CCC6C5CCC5(C)C(C7=CC(=O)OC7)C(O)CC65O)C4)OC3C)OC2C)CC(O)C1O (stereo not given),active: 0.58 µM,–
O=C(Nc1ccncc1)c1cccn(Cc2ccccc2)c1=O,"inconclusive [cytotoxic, partial curve]",–
COc1ccc(C=O)cc1,inactive,–
CC(=O)O[C@@]12CO[C@@H]1C[C@H](O)[C@@]1(C)C(=O)[C@H](O)C3=C(C)[C@@H](O)C[C@@](O)([C@@H](OC(=O)c4ccccc4)C12)C3(C)C (stereo not given in full),"inconclusive [cytotoxic, partial curve]",–
COc1ccc(Cc2nccc3cc(OC)c(OC)cc23)cc1OC,"inconclusive [cytotoxic, partial curve]",–
Clc1cccc(N2CCNCC2)c1Cl,inactive,–
O=C(O)[C@H]1C[C@@H]1[C@H](NP(=O)(c1ccccc1)c1ccccc1)c1ccccc1,inactive,–
O=C(N/N=C/c1c(O)n(CCC2=CCCCC2)c(=S)[nH]c1=O)c1ccccc1,"inconclusive [cytotoxic, single point]",–
CCCc1nc2ccc(Br)cc2c(=O)n1-c1ccc([N+](=O)[O-])c(C(F)(F)F)c1,"inconclusive [cytotoxic, single point]",–
Oc1ccccc1O,"inconclusive [cytotoxic, single point]",–
C1=NCCc2c1[nH]c1ccccc21,active: 16.4 µM,–

Compound,Potency,"activity, negative = toxicity"
CCCCCN1C(=O)c2cc(OC)ccc2[C@@]2(C(=O)OCC)Cc3cc(OC)ccc3[C@@H]12,active: 13 µM,–
Cc1ccc(CN2C3CCCC2CC(NC(=S)NCc2ccccc2)C3)cc1 (stereo not given),"inconclusive [cytotoxic, single point]",–
O=c1[nH]c(O)c(N=Nc2ccc(SC(F)F)cc2)c(=O)[nH]1,inactive,–
COc1ccc(-n2nnnc2C(CCc2ccccc2)N2CCC3(CC2)C(=O)NCN3c2ccccc2)cc1 (stereo not given),"inconclusive [cytotoxic, single point]",–
CCCCCCCn1c(=O)c(C(=O)Nc2cnccn2)c(O)c2ccccc21,"inconclusive [cytotoxic, full curve]",–
O=[N+]([O-])c1ccc(N(CCO)CCO)c2c1no[n+]2[O-],active: 5.8 µM,–
O=C(c1ccc(-c2ccccc2)c(F)c1)C1CCCN(CCO)C1 (stereo not given),"inconclusive [cytotoxic, single point]",–
CN(C)C(=O)Oc1ccc(Br)cc1C(=O)Nc1ccc(F)c(Cl)c1,"inconclusive [cytotoxic, partial curve]",–
COc1cc(OC)c(OC)cc1CNCCc1ccc(F)cc1,inactive,–
CC(=O)CC(c1ccc2c(c1)OCO2)c1c(O)c2ccccc2oc1=O (stereo not given),inactive,–
CC(C)(C)n1nnnc1C(c1ccnc2ccccc12)N1CCC2(CC1)C(=O)NCN2c1ccccc1 (stereo not given),inactive,–
COc1ccc(Cn2c(N)c(C(=O)NCc3ccco3)c3nc4ccccc4nc32)cc1OC,"inconclusive [cytotoxic, single point]",–
Cc1ccc(S(=O)(=O)N/N=C\c2cc3c(cc2[N+](=O)[O-])OCO3)cc1,"inconclusive [cytotoxic, single point]",–
CCCCOC1OCN(C2CCCCC2)CC1(C)C (stereo not given),inactive,–
COC(=O)C1=C(c2ccccc2OCc2ccccc2)C[C@@H]2CC[C@H]1N2C(=O)NC1CCN(Cc2ccccc2)CC1,inactive,–
Nc1c(Br)cc2c3c(cccc13)-c1ccccc1-2,"inconclusive [cytotoxic, partial curve]",–
CCCCCn1c(=O)c(C(=O)Nc2c(C)n(C)n(-c3ccccc3)c2=O)c(O)c2ccccc21,"inconclusive [cytotoxic, full curve, poor fit]",–
O=C(Cn1cc(C(=O)c2ccccc2)c2ccccc21)NCc1ccco1,"inconclusive [cytotoxic, single point]",–
COC(=O)C[C@]1(C(=O)OC)CN(C#N)N(c2ccc(Cl)cc2)C12c1ccccc1-c1ccccc12,active: 4.11 µM,–
Cc1ccc(C(=O)N[C@@H](C)CN2C3=NC[C@@H](Cc4ccccc4)N3C[C@H]2Cc2ccc(O)cc2)cc1Br,"inconclusive [cytotoxic, single point]",–
O=C1NC2C(=CC(O)C(O)C2O)c2cc3c(c(O)c21)OCO3 (stereo not given),active: 0.146 µM,–
O=C(NC1(C(F)(F)F)Oc2ccc(Cl)cc2O1)N1CCC2(CC1)OCCO2 (stereo not given),"inconclusive [cytotoxic, partial curve]",–
O=C(Cc1ccccc1)N1CCN(Cc2cccc(Cl)c2)CC1,–,inconclusive: 31.4%
CCOC(=O)c1c(NS(=O)(=O)c2ccccc2)n(CCCOC)c2nc3ccccc3nc12,"inconclusive [cytotoxic, single point]",–

Compound,Potency,"activity, negative = toxicity"
O=C1NCN(c2ccccc2)C12CCN(C(CCc1ccccc1)c1nnnn1C1CCCC1)CC2 (stereo not given),"inconclusive [cytotoxic, single point]",–
C/C(=N\Nc1ccccc1)c1c(O)n(-c2ccccc2)c(=O)[nH]c1=O,active: 4.61 µM,–
Cc1ccccc1-[n+]1c(-c2ccccc2)cc(-c2ccccc2)cc1-c1ccccc1,active: 7.31 µM,–
CCC(CC)COC(=O)C(C#N)c1nc2ccccc2nc1N1CCN(CC)CC1 (stereo not given),"inconclusive [cytotoxic, single point]",–
O=C(c1cccc(Cl)c1)C1CCCN(Cc2cccc3cnccc23)C1 (stereo not given),"inconclusive [cytotoxic, single point]",–
CCC(=NCCc1c[nH]c2ccccc12)c1c(O)n(C)c(=O)n(C)c1=O,"inconclusive [cytotoxic, partial curve]",–
COc1cc(C)c(CNCCc2c[nH]c3ccccc23)cc1C,"inconclusive [cytotoxic, partial curve, poor fit]",–
COc1ccc(-c2ccc3c(c2)CN(C(=O)CCc2ccccc2)Cc2cnnn2-3)cc1,"inconclusive [cytotoxic, single point]",–
CC1CC(NC(=O)C2C3CCC(O3)C2C(=O)O)CC(C)(C)C1 (stereo not given),"inconclusive [cytotoxic, single point]",–
O=c1[nH]c2ccccc2n1C1CCN(Cc2ccc(-c3nc4ccc(F)cc4nc3-c3ccccc3)cc2)CC1,"inconclusive [cytotoxic, single point]",–
CCS(=O)(=O)N1Cc2cc(C(=O)N(C)C)nc(-c3cccc(-c4ccc(F)cc4)c3)c2[C@@H]1CCO,inactive,–
CC(C(=O)c1ccc2ccccc2c1)N1CCCCC1 (stereo not given),inactive,–
CN1CCN(c2nc(N)c(Br)c(Cl)n2)CC1,inactive,–
O=C(c1ccc(Cl)cc1)C1CCCN(Cc2cccc3cccnc23)C1 (stereo not given),"inconclusive [cytotoxic, single point]",–
S=C(NCCc1ccccc1)N1Cc2ccc(Br)cc2-n2nncc2C1,"inconclusive [cytotoxic, single point]",–
O=C1NCN(c2ccccc2)C12CCN(C(CCc1ccccc1)c1nnnn1C1CCCCC1)CC2 (stereo not given),active: 25.9 µM,–
C[n+]1c2ccccc2nc2ccc(NCCO)cc21,inactive,–
COc1cc(/C=C/c2nc3ccccc3c(=O)n2-c2ccccc2O)ccc1O,"inconclusive [cytotoxic, partial curve]",–
C/C(=C\c1ccc(N(C)C)cc1)[N+](=O)[O-],active: 6.31 µM,–
NC(=O)C1(N2CCCCC2)CCN(CC(=O)Nc2ccc(Oc3ccccc3)cc2)CC1,"inconclusive [cytotoxic, single point]",–
C/C(=N\N(C)c1ccccc1)c1c(O)[nH]c(=O)[nH]c1=O,"inconclusive [cytotoxic, partial curve]",–
COC(=O)C1=C(c2ccccc2OCc2ccccc2)C[C@@H]2CC[C@H]1N2C(=O)NCc1ccc([N+](=O)[O-])cc1,"inconclusive [cytotoxic, partial curve]",–
